This note sets out measurements from a collection of fitness landscapes (doi:10.1016/j.celrep.2020.107928).

In all, about 81,000 sequences were measured (“one-hybrid fitness for binding parS DNA”: median about -0.17, highest 2% from about 0.51 on). Some of the results follow.

To fix the notation:
B1: Caulobacter ParB omega fusion; a variant is named by its letters at X, in order, B8GW30 (parent)
chain: MESVVVGEPGMSEGRRGLGRGLSALLGEVDAAPAQAPGEQLGGSREAPIEILQRNPDQPRRTFREEDLEDLSNSIREKGVLQPILVRPSPDTAGEYQIVAGERAWRAAQRAGLKTVPIMVRELDDLAVLEIGIIENVQRADLNVLEEALSYKVLMEKFERTQENIAQTIGKSXSHVANXMRLLXLPDEVQSYLVSGELTAXHARAIAAAADPVALAKQIIEGGLSVRETEALARKAPNLSAGKSKGGRPPRVKDTDTQALESDLSSVLGLDVSIDHRGSTGTLTITYATLEQLDDLCNRLTRGI

Variants of B1 are the subject of the test. The test can be described thus: one-hybrid fitness for binding parS DNA (scaled: cognate 1, non-cognate 0); higher = stronger binding. Particulars: with parS DNA site. The method, boiled down:
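Fitness is the rescaled log change in variant-to-wild-type read ratio, measured by Illumina sequencing of plasmids before and after bacterial one-hybrid selection. The scale puts cognate at 1 and non-cognate at 0. Selection of Caulobacter ParB libraries, four specificity codons randomised, took place in E. coli USO with a HIS3 reporter, site 19 bp from the promoter, over 48 hours at 37°C on M9-minus-histidine with 0.1 mM IPTG and 5 mM 3-AT.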
In the case of DIFG, the “one-hybrid fitness for binding parS DNA” value is not above 0.2.
Turning to AHQP, the “one-hybrid fitness for binding parS DNA” value is not above 0.2.
As to RYMN, the “one-hybrid fitness for binding parS DNA” value is 0.395.
In the case of RVCV, the “one-hybrid fitness for binding parS DNA” value is not above 0.2.
Consider DGST, for which the “one-hybrid fitness for binding parS DNA” value was not above 0.2.
On to KGQR, for which the “one-hybrid fitness for binding parS DNA” value was not above 0.2.
Consider PDCA, for which the “one-hybrid fitness for binding parS DNA” value was not above 0.2.
To LSKV belongs not above 0.2.
To GPPH belongs not above 0.2; to LQHI, not above 0.2.
In the case of VVYD, the “one-hybrid fitness for binding parS DNA” value is not above 0.2.
Regarding YAGY, the “one-hybrid fitness for binding parS DNA” value is not above 0.2.
On to QLID, for which the “one-hybrid fitness for binding parS DNA” value was not above 0.2.
For the variant YPYC, the “one-hybrid fitness for binding parS DNA” value was not above 0.2.
In the case of SAEN, the “one-hybrid fitness for binding parS DNA” value was not above 0.2.
Next, THEG: not above 0.2.
Consider PRES, for which the “one-hybrid fitness for binding parS DNA” value is not above 0.2.
Regarding PPHS, the “one-hybrid fitness for binding parS DNA” value is not above 0.2.
As to HDRG, the “one-hybrid fitness for binding parS DNA” value was not above 0.2.
On to QAAY, for which the “one-hybrid fitness for binding parS DNA” value is not above 0.2.
RTMS: the “one-hybrid fitness for binding parS DNA” value turned out to be 0.981.
Next, LYHH: not above 0.2; VSHG: not above 0.2; MTKP: not above 0.2.
With LTRT, the “one-hybrid fitness for binding parS DNA” value is not above 0.2.
To SVKW belongs not above 0.2; to ASKD, not above 0.2.
In the case of MPKT, the “one-hybrid fitness for binding parS DNA” value was not above 0.2.
To FQMG belongs not above 0.2; to TECL, not above 0.2.
Consider DNLR, for which the “one-hybrid fitness for binding parS DNA” value was not above 0.2.
Regarding YYWY, the “one-hybrid fitness for binding parS DNA” value is not above 0.2.
Consider ESKI, for which the “one-hybrid fitness for binding parS DNA” value is not above 0.2.
With VWVC, the “one-hybrid fitness for binding parS DNA” value was not above 0.2.
Turning to SKPA, the “one-hybrid fitness for binding parS DNA” value is not above 0.2.
As to CCPY, the “one-hybrid fitness for binding parS DNA” value is not above 0.2.
Take WIKC: the “one-hybrid fitness for binding parS DNA” value was not above 0.2.
As for RGLF, the “one-hybrid fitness for binding parS DNA” value was not above 0.2.
Take NTLS: the “one-hybrid fitness for binding parS DNA” value was not above 0.2.
NNNF: the “one-hybrid fitness for binding parS DNA” value was not above 0.2.
Consider QACG, for which the “one-hybrid fitness for binding parS DNA” value was not above 0.2.
PWTR: the “one-hybrid fitness for binding parS DNA” value is not above 0.2.
With HVQQ, the “one-hybrid fitness for binding parS DNA” value was not above 0.2.
Take SLNC: the “one-hybrid fitness for binding parS DNA” value is not above 0.2.
For the variant GGIG, the “one-hybrid fitness for binding parS DNA” value was not above 0.2.
For the variant RQRV, the “one-hybrid fitness for binding parS DNA” value was not above 0.2.
On to GLIG, for which the “one-hybrid fitness for binding parS DNA” value was not above 0.2.
As for VSAS, the “one-hybrid fitness for binding parS DNA” value is not above 0.2.
Turning to LSIY, the “one-hybrid fitness for binding parS DNA” value is not above 0.2.
RFEV: the “one-hybrid fitness for binding parS DNA” value is not above 0.2.
Consider ISTS, for which the “one-hybrid fitness for binding parS DNA” value was not above 0.2.
To PQPL belongs not above 0.2; to TAFI, not above 0.2; to PMMS, not above 0.2.
Consider VESS, for which the “one-hybrid fitness for binding parS DNA” value was not above 0.2.
In the case of GDCG, the “one-hybrid fitness for binding parS DNA” value is not above 0.2.
To DLHR belongs not above 0.2.
In the case of YVDR, the “one-hybrid fitness for binding parS DNA” value was 0.343.
As for LYCY, the “one-hybrid fitness for binding parS DNA” value is not above 0.2.
Next, EIQL: not above 0.2; HRVK: not above 0.2.
For the variant KATQ, the “one-hybrid fitness for binding parS DNA” value is not above 0.2.
To YEYS belongs not above 0.2; to AKCG, not above 0.2.
Next, REPH: not above 0.2.
Consider YNQS, for which the “one-hybrid fitness for binding parS DNA” value is not above 0.2.
To DQQT belongs not above 0.2; to EVWT, not above 0.2; to DYKL, not above 0.2.
As for AFNW, the “one-hybrid fitness for binding parS DNA” value was not above 0.2.
Next, EKSE: 0.236.
In the case of PCIR, the “one-hybrid fitness for binding parS DNA” value is not above 0.2.
Turning to IGHT, the “one-hybrid fitness for binding parS DNA” value was not above 0.2.
Next, VLSE: not above 0.2; LLDK: not above 0.2.
Next, TMLA: not above 0.2.
With KKKT, the “one-hybrid fitness for binding parS DNA” value is not above 0.2.
In the case of ELNL, the “one-hybrid fitness for binding parS DNA” value is not above 0.2.
In the case of CIPR, the “one-hybrid fitness for binding parS DNA” value is not above 0.2.
Regarding AEQS, the “one-hybrid fitness for binding parS DNA” value is not above 0.2.
With YNPE, the “one-hybrid fitness for binding parS DNA” value is not above 0.2.
To QHEC belongs not above 0.2; to CTDH, not above 0.2; to TDKT, not above 0.2.
As for RPEG, the “one-hybrid fitness for binding parS DNA” value is not above 0.2.
For KTYA, the “one-hybrid fitness for binding parS DNA” value was not above 0.2.
Turning to AASG, the “one-hybrid fitness for binding parS DNA” value was not above 0.2.
For the variant RNHD, the “one-hybrid fitness for binding parS DNA” value was not above 0.2.
To VNIL belongs not above 0.2; to IFRA, not above 0.2.
As for NFAR, the “one-hybrid fitness for binding parS DNA” value was not above 0.2.
In the case of PEQN, the “one-hybrid fitness for binding parS DNA” value was not above 0.2.
With VDAA, the “one-hybrid fitness for binding parS DNA” value is not above 0.2.
Next, LAKL: not above 0.2.
Take PITA: the “one-hybrid fitness for binding parS DNA” value is not above 0.2.
With GYKG, the “one-hybrid fitness for binding parS DNA” value was not above 0.2.
Take PMHC: the “one-hybrid fitness for binding parS DNA” value is not above 0.2.
As to HSNI, the “one-hybrid fitness for binding parS DNA” value is not above 0.2.
As for VDHS, the “one-hybrid fitness for binding parS DNA” value is not above 0.2.
On to SNNG, for which the “one-hybrid fitness for binding parS DNA” value is not above 0.2.
Next, RTPA: 0.363; TFSR: not above 0.2.
Next, HTPG: not above 0.2; PCEY: not above 0.2; LRWW: not above 0.2.
Take DWMC: the “one-hybrid fitness for binding parS DNA” value was not above 0.2.
Take AFMV: the “one-hybrid fitness for binding parS DNA” value was not above 0.2.
Take ATLS: the “one-hybrid fitness for binding parS DNA” value is not above 0.2.
As to LPPM, the “one-hybrid fitness for binding parS DNA” value is not above 0.2.
Take GNHS: the “one-hybrid fitness for binding parS DNA” value was not above 0.2.
Next, ILRM: not above 0.2; NSKA: not above 0.2; RCKI: not above 0.2.
DKKS: the “one-hybrid fitness for binding parS DNA” value is not above 0.2.
Regarding WSPG, the “one-hybrid fitness for binding parS DNA” value is not above 0.2.
As to GKGS, the “one-hybrid fitness for binding parS DNA” value was not above 0.2.
For THAY, the “one-hybrid fitness for binding parS DNA” value was not above 0.2.
In the case of KYDS, the “one-hybrid fitness for binding parS DNA” value was not above 0.2.
With CGLS, the “one-hybrid fitness for binding parS DNA” value was not above 0.2.
Take QNYP: the “one-hybrid fitness for binding parS DNA” value is not above 0.2.
Next, TASG: not above 0.2; KWGG: not above 0.2.
TRHW: the “one-hybrid fitness for binding parS DNA” value is not above 0.2.
Regarding LRRL, the “one-hybrid fitness for binding parS DNA” value was not above 0.2.
On to ANWL, for which the “one-hybrid fitness for binding parS DNA” value is not above 0.2.
LCDP: the “one-hybrid fitness for binding parS DNA” value was not above 0.2.
Regarding WRLW, the “one-hybrid fitness for binding parS DNA” value was not above 0.2.
In the case of IYLR, the “one-hybrid fitness for binding parS DNA” value is not above 0.2.
RLNI: the “one-hybrid fitness for binding parS DNA” value is not above 0.2.
As to KTAF, the “one-hybrid fitness for binding parS DNA” value is not above 0.2.
In the case of QIHC, the “one-hybrid fitness for binding parS DNA” value is not above 0.2.
Regarding RHYY, the “one-hybrid fitness for binding parS DNA” value was determined as 0.438.
To VKDI belongs not above 0.2; to TEPL, not above 0.2.
With CTVD, the “one-hybrid fitness for binding parS DNA” value is not above 0.2.
DSNP: the “one-hybrid fitness for binding parS DNA” value is not above 0.2.
For PATQ, the “one-hybrid fitness for binding parS DNA” value was not above 0.2.
Next, PRSY: not above 0.2; SMSG: not above 0.2.
With VLYA, the “one-hybrid fitness for binding parS DNA” value is not above 0.2.
As for PTAA, the “one-hybrid fitness for binding parS DNA” value was not above 0.2.
Next, NIYG: not above 0.2.
VPHI: the “one-hybrid fitness for binding parS DNA” value is not above 0.2.
Next, TYDS: not above 0.2; ETHR: not above 0.2.
PHNT: the “one-hybrid fitness for binding parS DNA” value is not above 0.2.
On to FFGV, for which the “one-hybrid fitness for binding parS DNA” value was not above 0.2.
MPPS: the “one-hybrid fitness for binding parS DNA” value is not above 0.2.
For the variant HYMV, the “one-hybrid fitness for binding parS DNA” value is not above 0.2.
With PMAF, the “one-hybrid fitness for binding parS DNA” value is not above 0.2.
As for QAWA, the “one-hybrid fitness for binding parS DNA” value is not above 0.2.
Consider EQRT, for which the “one-hybrid fitness for binding parS DNA” value was not above 0.2.
Consider ANMW, for which the “one-hybrid fitness for binding parS DNA” value is not above 0.2.
For ISFR, the “one-hybrid fitness for binding parS DNA” value was not above 0.2.
To KDVG belongs not above 0.2; to LMRW, not above 0.2.
Consider SLLH, for which the “one-hybrid fitness for binding parS DNA” value is not above 0.2.
Next, NWNQ: not above 0.2.
To QHNP belongs not above 0.2; to RKMA, 0.54.
Turning to FDQS, the “one-hybrid fitness for binding parS DNA” value was not above 0.2.
As for TIVG, the “one-hybrid fitness for binding parS DNA” value was not above 0.2.
As for ETKG, the “one-hybrid fitness for binding parS DNA” value was not above 0.2.
On to PPRT, for which the “one-hybrid fitness for binding parS DNA” value is not above 0.2.
As for NSEV, the “one-hybrid fitness for binding parS DNA” value was not above 0.2.
For the variant SNIL, the “one-hybrid fitness for binding parS DNA” value is not above 0.2.
RSWL: the “one-hybrid fitness for binding parS DNA” value is not above 0.2.
To NIRA belongs not above 0.2.
As to SYLW, the “one-hybrid fitness for binding parS DNA” value is not above 0.2.
YKVS: the “one-hybrid fitness for binding parS DNA” value was not above 0.2.
Regarding STHP, the “one-hybrid fitness for binding parS DNA” value was not above 0.2.
Turning to ADNV, the “one-hybrid fitness for binding parS DNA” value was not above 0.2.
For the variant FNNS, the “one-hybrid fitness for binding parS DNA” value is not above 0.2.
Turning to MTRM, the “one-hybrid fitness for binding parS DNA” value was not above 0.2.
To ENNS belongs not above 0.2; to LHAS, not above 0.2; to VRNQ, not above 0.2.
For the variant PPRN, the “one-hybrid fitness for binding parS DNA” value is not above 0.2.
Consider MNDD, for which the “one-hybrid fitness for binding parS DNA” value is not above 0.2.
To AGPC belongs not above 0.2; to QYAC, not above 0.2; to RRIH, not above 0.2.
For QSKA, the “one-hybrid fitness for binding parS DNA” value was not above 0.2.
On to RLNT, for which the “one-hybrid fitness for binding parS DNA” value was 0.908.
Next, DKRI: not above 0.2; RCGG: 1.01; DRDY: not above 0.2.
NDTY: the “one-hybrid fitness for binding parS DNA” value is not above 0.2.
Next, RVGS: 0.954; PYKV: not above 0.2; QHGI: not above 0.2.
To VGGG belongs not above 0.2; to TFCY, not above 0.2.
Next, GNLI: not above 0.2; THSI: not above 0.2.
